# Laboratory results as given in article PMC5892938.
# This is one part of the list. At the low end of the ranking, values are background and their order means little.
# Target: GST-SBP-SLBP (stem-loop binding protein) (UniProt Q14493)
# Assay: targeted RNA Bind-n-Seq;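 also: DESeq read counts versus GST-SBP nonspecific binding control pulldown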
# Details: RBNS binding buffer: 25 mM Tris pH 7.5, 150 mM KCl, 3 mM MgCl2, 0.1% Tween, 0.5 mg/mL BSA, 1 mM DTT; 27 nM protein, 750 pM RNA pool; temperature not stated; high values mean tight binding
row,Sequence,binding signal (log2 fold change)
1,GGUCACGUCUCAAUCAACUCUCCUGAGGGGGGGAAAACCCCUUUACCCUCUUUUUCAACAGCUCGCAGUCAAG,0.0102
2,GGUCACGUCUCAAUCAACUCACAAGAGGGGGGGAAAACCCCUUUGCCCUCCAUAUCAACAGCUCGCAGUCAAG,0.125
3,GGUCACGUCUCAAUCAACUCUAUUUCAGGAGUUUACUCCUGUUUUCUCAACAGCUCGCAGUCAAG,0.0148
4,GGUCACGUCUCAAUCAACUCAUCUUCAGGAGUUUGCUCCUGUUUUCUCAACAGCUCGCAGUCAAG,0.0548
5,GGUCACGUCUCAAUCAACUCUAUGUCAGGAGUUUACUCCUGUUUAUUCAACAGCUCGCAGUCAAG,0.0418
6,GGUCACGUCUCAAUCAACUCCUACGAGGGGGGGAAAACCCCUUUACCCUCUUUAUCAACAGCUCGCAGUCAAG,0.105
7,GGUCACGUCUCAAUCAACUCUAUCCCAGGAGUUUUCUCCUGUUUUGUCAACAGCUCGCAGUCAAG,-0.145
8,GGUCACGUCUCAAUCAACUCUACUCCAGGAGUUUUCUCCUGUAUUUUCAACAGCUCGCAGUCAAG,-0.129
9,GGUCACGUCUCAAUCAACUCUUCGUCAGGAGUUUCCUCCUGUUUAUUCAACAGCUCGCAGUCAAG,0.086
10,GGUCACGUCUCAAUCAACUCUACUUCAGGAGUUUUCUCCUGCUAUUUCAACAGCUCGCAGUCAAG,-0.0336
11,GGUCACGUCUCAAUCAACUCAAAAGAGGGGGGGAAAACCCCUUUGCCCUCCGUAUCAACAGCUCGCAGUCAAG,-0.103
12,GGUCACGUCUCAAUCAACUCAUCGCCCAGGGAAAACCCUGGUAAUUUCAACAGCUCGCAGUCAAG,-0.329
13,GGUCACGUCUCAAUCAACUCAUUCUCCAGGGAAAGCCCUGGCUAUCUCAACAGCUCGCAGUCAAG,-0.331
14,GGUCACGUCUCAAUCAACUCACUCGAGGGGGGGAAAACCCCUUUACCCUCACCUUCAACAGCUCGCAGUCAAG,0.152
15,GGUCACGUCUCAAUCAACUCUUCUCCCAGGGAAAACCCUGGUUUUCUCAACAGCUCGCAGUCAAG,0.0576
16,GGUCACGUCUCAAUCAACUCUAUCUCCAGGGAAAUCCCUGGUAAAUUCAACAGCUCGCAGUCAAG,0.183
17,GGUCACGUCUCAAUCAACUCAUCUCCCAGGGAAACCCCUGGUAUACUCAACAGCUCGCAGUCAAG,-0.0911
18,GGUCACGUCUCAAUCAACUCUUCUCCCAGGGAAAUCCCUGGCAUUCUCAACAGCUCGCAGUCAAG,0.0258
19,GGUCACGUCUCAAUCAACUCAUCCUCCAGGGAAAUCCCUGGUUAAUUCAACAGCUCGCAGUCAAG,-0.134
20,GGUCACGUCUCAAUCAACUCUAUCCCAGGAGUUUCCUCCUGUAUUUUCAACAGCUCGCAGUCAAG,0.204
21,GGUCACGUCUCAAUCAACUCUACUCCAGGAGUUUCCUCCUGCUAUCUCAACAGCUCGCAGUCAAG,-0.00403
22,GGUCACGUCUCAAUCAACUCAAUCCCAGGAGUUUACUCCUGCAUUCUCAACAGCUCGCAGUCAAG,0.0426
23,GGUCACGUCUCAAUCAACUCAUUUCCAGGAGUUUGCUCCUGCAAUUUCAACAGCUCGCAGUCAAG,-0.216
24,GGUCACGUCUCAAUCAACUCCCUAGAGGGGGGGAAAACCCCUUUACCCUCCCAUUCAACAGCUCGCAGUCAAG,0.0991

row,Sequence,binding signal (log2 fold change)
1,GGUCACGUCUCAAUCAACUCAAUUCCAGGAGUUUUCUCCUGCUUUUUCAACAGCUCGCAGUCAAG,-0.0436
2,GGUCACGUCUCAAUCAACUCUUCGUCAGGAGUUUUCUCCUGCAAUUUCAACAGCUCGCAGUCAAG,-0.0168
3,GGUCACGUCUCAAUCAACUCACUAGAGGGGGGGAAAACCCCUUUGCCCUCAUAUUCAACAGCUCGCAGUCAAG,-0.235
4,GGUCACGUCUCAAUCAACUCUACUCCCAGGGAAAUCCCUGGCUUUCUCAACAGCUCGCAGUCAAG,0.077
5,GGUCACGUCUCAAUCAACUCAUCCCCAGGAGUUUUCUCCUGCAUUUUCAACAGCUCGCAGUCAAG,0.0349
6,GGUCACGUCUCAAUCAACUCAACUCCAGGAGUUUCCUCCUGCAAUUUCAACAGCUCGCAGUCAAG,0.067
7,GGUCACGUCUCAAUCAACUCAUUCUCCAGGGAAACCCCUGGUUUACUCAACAGCUCGCAGUCAAG,-0.155
8,GGUCACGUCUCAAUCAACUCUUUAGAGGGGGGGAAAACCCCUUUGCCCUCAACUUCAACAGCUCGCAGUCAAG,0.318
9,GGUCACGUCUCAAUCAACUCUUUCUCCAGGGAAACCCCUGGCAUACUCAACAGCUCGCAGUCAAG,-0.0265
10,GGUCACGUCUCAAUCAACUCCCAAGAGGGGGGGAAAACCCCUUUGCCCUCAAUCUCAACAGCUCGCAGUCAAG,0.193
11,GGUCACGUCUCAAUCAACUCUCCCGAGGGGGGGAAAACCCCUUUGCCCUCAUAAUCAACAGCUCGCAGUCAAG,-0.00248
12,GGUCACGUCUCAAUCAACUCUAUCCCCAGGGAAACCCCUGGCAUAUUCAACAGCUCGCAGUCAAG,0.00938
13,GGUCACGUCUCAAUCAACUCACAAGAGGGGGGGAAAACCCCUUUGCCCUCAGAAUCAACAGCUCGCAGUCAAG,-0.193
14,GGUCACGUCUCAAUCAACUCUAUAGAGGGGGGGAAAACCCCUUUGCCCUCACUAUCAACAGCUCGCAGUCAAG,-0.0226
15,GGUCACGUCUCAAUCAACUCAUUCCCAGGAGUUUCCUCCUGUUUACUCAACAGCUCGCAGUCAAG,0.0126
16,GGUCACGUCUCAAUCAACUCAACUCCCAGGGAAAGCCCUGGCAAAUUCAACAGCUCGCAGUCAAG,0.135
17,GGUCACGUCUCAAUCAACUCAGUCCCAGGAGUUUUCUCCUGUAUUCUCAACAGCUCGCAGUCAAG,0.0936
18,GGUCACGUCUCAAUCAACUCUAUUUCAGGAGUUUACUCCUGCUUUCUCAACAGCUCGCAGUCAAG,0.0608
19,GGUCACGUCUCAAUCAACUCUUCCUCAGGAGUUUUCUCCUGCAAACUCAACAGCUCGCAGUCAAG,-0.0179
20,GGUCACGUCUCAAUCAACUCAAUUUCAGGAGUUUUCUCCUGCUAUCUCAACAGCUCGCAGUCAAG,0.0414
21,GGUCACGUCUCAAUCAACUCUUCUCCAGGAGUUUACUCCUGUAUUUUCAACAGCUCGCAGUCAAG,0.087
22,GGUCACGUCUCAAUCAACUCAAUCUCCAGGGAAAACCCUGGCAAAGUCAACAGCUCGCAGUCAAG,0.214
23,GGUCACGUCUCAAUCAACUCAUCCUCCAGGGAAAGCCCUGGUUAUCUCAACAGCUCGCAGUCAAG,-0.228
